Laboratory results taken from patent US4537717A.

Tested on: Staphylococcus aureus S13E
Type: cell-based
Settings: agar dilution; 2, 5, 17, 22 median of three tests; paired values two experiments

Molecule | MIC Staphylococcus aureus S13E [µg/mL]
CCCCCCCC(=O)N[C@@H](Cc1c[nH]c2ccccc12)C(=O)N[C@@H](CC(N)=O)C(=O)N[C@@H](CC(=O)O)C(=O)N[C@@H]1C(=O)NCC(=O)N[C@@H](CCCN)C(=O)N[C@@H](CC(=O)O)C(=O)N[C@H](C)C(=O)N[C@@H](CC(=O)O)C(=O)NCC(=O)N[C@H](CO)C(=O)N[C@@H]([C@H](C)CC(=O)O)C(=O)N[C@@H](CC(=O)c2ccccc2N)C(=O)O[C@@H]1C [Compound 2] | 4 (≈ 2.51 µM)
CCCCCCC(=O)N[C@@H](Cc1c[nH]c2ccccc12)C(=O)N[C@@H](CC(N)=O)C(=O)N[C@@H](CC(=O)O)C(=O)N[C@@H]1C(=O)NCC(=O)N[C@@H](CCCN)C(=O)N[C@@H](CC(=O)O)C(=O)N[C@H](C)C(=O)N[C@@H](CC(=O)O)C(=O)NCC(=O)N[C@H](CO)C(=O)N[C@@H]([C@H](C)CC(=O)O)C(=O)N[C@@H](CC(=O)c2ccccc2N)C(=O)O[C@@H]1C [Compound 1] | 8 (≈ 5.07 µM)
NTrp -(n-Decanoyl)-NKyn -(n-decanoyl)-A-21978C [Compound 21] | 16
CCCCCCCCC(=O)N[C@@H](Cc1c[nH]c2ccccc12)C(=O)N[C@@H](CC(N)=O)C(=O)N[C@@H](CC(=O)O)C(=O)N[C@@H]1C(=O)NCC(=O)N[C@@H](CCCN)C(=O)N[C@@H](CC(=O)O)C(=O)N[C@H](C)C(=O)N[C@@H](CC(=O)O)C(=O)NCC(=O)N[C@H](CO)C(=O)N[C@@H]([C@H](C)CC(=O)O)C(=O)N[C@@H](CC(=O)c2ccccc2N)C(=O)O[C@@H]1C [Compound 3] | 2 (≈ 1.24 µM)
CCCCCCCCCCCCCCCC(=O)N[C@@H](Cc1c[nH]c2ccccc12)C(=O)N[C@@H](CC(N)=O)C(=O)N[C@@H](CC(=O)O)C(=O)N[C@@H]1C(=O)NCC(=O)N[C@@H](CCCN)C(=O)N[C@@H](CC(=O)O)C(=O)N[C@H](C)C(=O)N[C@@H](CC(=O)O)C(=O)NCC(=O)N[C@H](CO)C(=O)N[C@@H]([C@H](C)CC(=O)O)C(=O)N[C@@H](CC(=O)c2ccccc2N)C(=O)O[C@@H]1C [Compound 10] | 1 (≈ 0.587 µM)
CCCCCCCCCCCCCC(=O)N[C@@H](Cc1c[nH]c2ccccc12)C(=O)N[C@@H](CC(N)=O)C(=O)N[C@@H](CC(=O)O)C(=O)N[C@@H]1C(=O)NCC(=O)N[C@@H](CCCN)C(=O)N[C@@H](CC(=O)O)C(=O)N[C@H](C)C(=O)N[C@@H](CC(=O)O)C(=O)NCC(=O)N[C@H](CO)C(=O)N[C@@H]([C@H](C)CC(=O)O)C(=O)N[C@@H](CC(=O)c2ccccc2N)C(=O)O[C@@H]1C [Compound 8] | 1 (≈ 0.596 µM)
CCCCCCCCCCCCCCC(=O)N[C@@H](Cc1c[nH]c2ccccc12)C(=O)N[C@@H](CC(N)=O)C(=O)N[C@@H](CC(=O)O)C(=O)N[C@@H]1C(=O)NCC(=O)N[C@@H](CCCN)C(=O)N[C@@H](CC(=O)O)C(=O)N[C@H](C)C(=O)N[C@@H](CC(=O)O)C(=O)NCC(=O)N[C@H](CO)C(=O)N[C@@H]([C@H](C)CC(=O)O)C(=O)N[C@@H](CC(=O)c2ccccc2N)C(=O)O[C@@H]1C [Compound 9] | 1 (≈ 0.591 µM)
CCCCC=CCCCCCCCC(=O)N[C@@H](Cc1c[nH]c2ccccc12)C(=O)N[C@@H](CC(N)=O)C(=O)N[C@@H](CC(=O)O)C(=O)N[C@@H]1C(=O)NCC(=O)N[C@@H](CCCN)C(=O)N[C@@H](CC(=O)O)C(=O)N[C@H](C)C(=O)N[C@@H](CC(=O)O)C(=O)NCC(=O)N[C@H](CO)C(=O)N[C@@H]([C@H](C)CC(=O)O)C(=O)N[C@@H](CC(=O)c2ccccc2N)C(=O)O[C@@H]1C [Compound 12] | 1 (≈ 0.597 µM)
CCCCCCCCCCC(=O)N[C@@H](Cc1c[nH]c2ccccc12)C(=O)N[C@@H](CC(N)=O)C(=O)N[C@@H](CC(=O)O)C(=O)N[C@@H]1C(=O)NCC(=O)N[C@@H](CCCN)C(=O)N[C@@H](CC(=O)O)C(=O)N[C@H](C)C(=O)N[C@@H](CC(=O)O)C(=O)NCC(=O)N[C@H](CO)C(=O)N[C@@H]([C@H](C)CC(=O)O)C(=O)N[C@@H](CC(=O)c2ccccc2N)C(=O)O[C@@H]1C [Compound 5] | 0.5 (≈ 0.306 µM)
CCCCCCCC(=O)NCCC[C@@H]1NC(=O)CNC(=O)[C@@H](NC(=O)[C@H](CC(=O)O)NC(=O)[C@H](CC(N)=O)NC(=O)[C@H](Cc2c[nH]c3ccccc23)NC(=O)CCCCCCC)[C@@H](C)OC(=O)[C@H](CC(=O)c2ccccc2N)NC(=O)[C@H]([C@H](C)CC(=O)O)NC(=O)[C@@H](CO)NC(=O)CNC(=O)[C@H](CC(=O)O)NC(=O)[C@@H](C)NC(=O)[C@H](CC(=O)O)NC1=O [Compound 16] | 8 (≈ 4.65 µM)
CCCCCCCCCCCCN[C@@H](Cc1c[nH]c2ccccc12)C(=O)N[C@@H](CC(N)=O)C(=O)N[C@@H](CC(=O)O)C(=O)N[C@@H]1C(=O)NCC(=O)N[C@@H](CCCN)C(=O)N[C@@H](CC(=O)O)C(=O)N[C@H](C)C(=O)N[C@@H](CC(=O)O)C(=O)NCC(=O)N[C@H](CO)C(=O)N[C@@H]([C@H](C)CC(=O)O)C(=O)N[C@@H](CC(=O)c2ccccc2N)C(=O)O[C@@H]1C [Compound 22, NTrp -(n-dodecyl)-A-21978C nucleus] | 0.5 (≈ 0.306 µM)
NTrp -(n-dodecyl)-NOrn -(n-dodecyl)-A-21978C nucleus [Compound 23] | 8
CCCCCCCCCCCCC(=O)N[C@@H](Cc1c[nH]c2ccccc12)C(=O)N[C@@H](CC(N)=O)C(=O)N[C@@H](CC(=O)O)C(=O)N[C@@H]1C(=O)NCC(=O)N[C@@H](CCCN)C(=O)N[C@@H](CC(=O)O)C(=O)N[C@H](C)C(=O)N[C@@H](CC(=O)O)C(=O)NCC(=O)N[C@H](CO)C(=O)N[C@@H]([C@H](C)CC(=O)O)C(=O)N[C@@H](CC(=O)c2ccccc2N)C(=O)O[C@@H]1C [Compound 7] | 0.25 (≈ 0.15 µM)
CCCCCCCCCCCC(=O)N[C@@H](Cc1c[nH]c2ccccc12)C(=O)N[C@@H](CC(N)=O)C(=O)N[C@@H](CC(=O)O)C(=O)N[C@@H]1C(=O)NCC(=O)N[C@@H](CCCN)C(=O)N[C@@H](CC(=O)O)C(=O)N[C@H](C)C(=O)N[C@@H](CC(=O)O)C(=O)NCC(=O)N[C@H](CO)C(=O)N[C@@H]([C@H](C)CC(=O)O)C(=O)N[C@@H](CC(=O)c2ccccc2N)C(=O)O[C@@H]1C [Compound 6] | 0.5 (≈ 0.303 µM)
CCCCCCCCCCC(=O)NCCC[C@@H]1NC(=O)CNC(=O)[C@@H](NC(=O)[C@H](CC(=O)O)NC(=O)[C@H](CC(N)=O)NC(=O)[C@H](Cc2c[nH]c3ccccc23)NC(=O)CCCCCCCCCC)[C@@H](C)OC(=O)[C@H](CC(=O)c2ccccc2N)NC(=O)[C@H]([C@H](C)CC(=O)O)NC(=O)[C@@H](CO)NC(=O)CNC(=O)[C@H](CC(=O)O)NC(=O)[C@@H](C)NC(=O)[C@H](CC(=O)O)NC1=O [Compound 17] | 1 (≈ 0.555 µM)
C=CCCCCCCCCC(=O)N[C@@H](Cc1c[nH]c2ccccc12)C(=O)N[C@@H](CC(N)=O)C(=O)N[C@@H](CC(=O)O)C(=O)N[C@@H]1C(=O)NCC(=O)N[C@@H](CCCN)C(=O)N[C@@H](CC(=O)O)C(=O)N[C@H](C)C(=O)N[C@@H](CC(=O)O)C(=O)NCC(=O)N[C@H](CO)C(=O)N[C@@H]([C@H](C)CC(=O)O)C(=O)N[C@@H](CC(=O)c2ccccc2N)C(=O)O[C@@H]1C [Compound 11] | 0.25 (≈ 0.153 µM)

Converted amounts (≈) assume the structure as drawn.
